# Reference: PubChem BioAssay (NCI)
# “And” between values parts separate entries of the source, which are not always exact repeats. Identical values can stand only once.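 These data come from cells grown in 96-well plates and exposed to compound for 48 hours at five concentrations. GI50 marks 50% less growth. TGI is the concentration that stops growth completely.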 Numbered stars: 1 amine (or outer) side, 2 acyl side, 3 side chain; on linkers, the order of the positions; unused ones are H or OH. Peptide text beside a SMILES is read from it. CO = O=C([*:1])[*:2]
# Test system: NCI-H322M lung
# Test: DTP human tumour cell line panel, 48 h
Structure (SMILES),TGI,GI50
c1ccc2c(OCC3CO3)ccc(OCC3CO3)c2c1 (stereo not drawn),22.4 µM,
CSC1=N/C(=C\c2ccc(Cl)cc2)C(=O)N1CN1CCOCC1,> 100 µM,
CC1N(O)C(c2ccccc2)C(c2ccccc2)=[N+]1[O-] (stereo not drawn),> 100 µM,
C=C1C(=O)O[C@H]2[C@H]1CC/C(COC(=O)N[C@@H](Cc1c[nH]c3ccccc13)C(=O)OC)=C\CC[C@@]1(C)O[C@@H]21,18 µM,5.39 µM
COc1ccc(OC)c2sc(N3C(=O)/C(=C/c4ccccc4S)N=C3c3ccccc3)nc12,> 100 µM,
O=C1OC(c2ccccc2)(c2ccccc2)CC1CN1CCOCC1 (stereo not drawn),> 100 µM,
CO[C@@]12C[C@@H](CNC(=O)c3cc(Br)c[nH]3)O[C@@H]1NC(=O)N2,> 100 µM,
COc1ccc(/C(Cl)=C(\C=O)c2cc(OC)c(OC)c(OC)c2)cc1OC,> 100 µM,
Cc1nc2c(n1CCCl)C(=O)c1ccccc1C2=O,> 100 µM,
O=C(n1[nH]c(=O)n(-c2ccc([N+](=O)[O-])cc2)c1=O)C(Cl)(Cl)Cl,> 75 µM,
O=C1CC(c2ccccc2)NCN1 (stereo not drawn),> 100 µM,
O=c1c2cc([N+](=O)[O-])cnc2sn1-c1ccc(Oc2ccccc2)cc1,> 100 µM,
Cc1ccc(C2=NN(C)COC2C(F)(F)F)cc1 (stereo not drawn),> 100 µM,
CC1=C/C(=N\N(C)C)C(C(O)(C(F)(F)F)C(F)(F)F)C(C)(C)C1 (stereo not drawn),> 100 µM,
CC1=C(C(=O)OC23CC4CC(CC(C4)C2)C3)C(c2ccccc2OC(F)F)C(C(=O)OC23CC4CC(CC(C4)C2)C3)=C(C)N1 (stereo not drawn),> 100 µM,
O=C(Nc1nc(-c2ccc(Cl)cc2)cs1)c1ccc(O)c(O)c1,39.2 µM,10.5 µM
CC1(C)OC(=O)C=C(O)O1.CC1(C)OC(=O)C=C(O)O1.CCO.Oc1ccc2c(c1)CCC2.[Ti],> 100 µM,60.1 µM
Cc1cc(Nc2ncc(Cl)c(Nc3ccccc3S(=O)(=O)C(C)C)n2)c(OC(C)C)cc1C1CCNCC1,2.35 µM,1.13 µM
COc1ccc(C(=O)c2ccc(OC)cc2OC)cc1,> 100 µM,3.59 µM
O=C(Nc1ccc(N=Nc2ccccc2)cc1)Sc1ccccc1C(=O)O,> 100 µM,
COc1cc(/C=C2\CCC(C)c3c2nc(N)c(C#N)c3-c2cc(OC)c(OC)c(OC)c2)cc(OC)c1OC (stereo not drawn),> 100 µM,
CCOC(=O)Cc1nc2nn(Cc3ccccc3)cc2c(=O)[nH]1,> 100 µM,
CC1(C)C[C@H]2C3=CC[C@@H]4[C@@]5(C)CC[C@H](O)C(C)(C)[C@@H]5CC[C@@]4(C)[C@]3(C)C[C@@H](O)[C@@]23C[C@@H]1OC3=O,> 100 µM,
CN(C)Cc1cc(C(=O)/C=C/c2c(Cl)cccc2Cl)cc(CN(C)C)c1O,23.8 µM,
CC(C)C(NC(=O)C(CCCN=C(N)N)NC(=O)NC(Cc1ccccc1)C(=O)O)C(=O)NC(C=O)CCCN=C(N)N (stereo not drawn) ({Phe-CO}-Arg-Val-Arg-aldehyde; configuration not given here),> 5 µM,> 5 µM
Cc1c(N)nc([C@H](CC(N)=O)NC[C@H](N)C(N)=O)nc1C(=O)N[C@H](C(=O)N[C@H](C)[C@@H](O)[C@H](C)C(=O)N[C@H](C(=O)NCCc1nc(-c2nc(C(=O)NCCC[S+](C)C)cs2)cs1)[C@@H](C)O)C(OC1OC(CO)C(O)C(O)C1OC1OC(CO)C(O)C(OC(N)=O)C1O)c1cnc[nH]1 (stereo partly drawn),24.4 µM and > 25 µM and > 100 µM,> 25 µM and 33.2 µM
CC(=O)[CH-]C(C)=O.CC(=O)[CH-]C(C)=O.CC(=O)[CH-]C(C)=O.[Cl-].[Hf+4],> 100 µM,> 100 µM

Structure (SMILES),TGI,GI50
CCOC(=O)c1ccc(C(O)CC(=O)OC(C)(C)C)[nH]1 (stereo not drawn),> 100 µM,37.1 µM
O=C(/C=C(\O)C(=O)O)/C=C(\O)c1ccccc1Cl,> 100 µM,
OCC1OC(O)C(N=Cc2ccc3c(c2)OCO3)C(O)C1O (stereo not drawn),> 100 µM,
CC(C(O)c1ccccc1)N(C)/N=N/c1nc2c([nH]1)c(=O)n(C)c(=O)n2C (stereo not drawn),> 100 µM,
O=C(/C=C/C12c3ccccc3C(c3ccccc31)C1C(=O)NC(=O)C12)c1ccco1 (stereo not drawn),12 µM,2.95 µM
COC(=O)C1=C(C(=O)OC)C(C(=O)c2ccccc2)N2N=C(c3ccc(Cl)cc3)C=CC12 (stereo not drawn),> 100 µM,
Cn1c(=S)[nH]c2c(Cl)cc(Cl)cc2c1=O,> 100 µM,
CC(=O)OCCC[C@@H]1C(=C(C)C)CCC2[C@@]1(C)CC[C@@]1(C)C[C@](C)(CCC=C(C)C)CC[C@]21C (stereo partly drawn),> 100 µM,
O=c1[nH]c2nccn2c(Cl)c1Br,45.2 µM,
C=C1C(=O)O[C@H]2[C@H]1CC/C(COC(=O)NCCc1c[nH]c3ccccc13)=C\CC[C@@]1(C)O[C@@H]21,19.4 µM,6.39 µM
Cc1ccc(S(=O)(=O)Oc2coc(CO)cc2=O)cc1,30.7 µM,
CCC1=NC(N/N=C/c2ccccc2O)=N/C1=C\c1ccccc1O,> 80.9 µM,
CO/C=C/c1cc2c(cc1C(OC)OC)OCO2,> 100 µM,
N#CCc1[nH]nc2nc(SCc3ccccc3)nc(N3CCCCC3)c12,36.9 µM,
C=C1C(=O)O[C@H]2[C@H]1CC/C(Cn1cc(Cn3ccc4cc(Cl)ccc43)nn1)=C\CC[C@@]1(C)O[C@@H]21,21.3 µM,9.39 µM
CCCCC1(OC(=O)CCC(=O)O)CCC2(CCC(C)C(C/C=C(C)/C=C/C(O)C(C)/C=C/C(=O)O)O2)OC1CC/C(C)=C/C(=O)O (stereo not drawn),13 µM,
O=C(c1cccs1)c1c(C(F)(F)F)n([O-])c2cc(C(F)(F)F)ccc2[n+]1=O,4.02 µM,1.98 µM
COc1nc(C#CCCCC#N)nc(OC)n1,41.7 µM,
CC(=O)/C(=C/N1C(=O)CC(=O)NC1=S)C(=O)Nc1ccccc1C,> 100 µM,
CCN(CC)CCN1CCN=c2c3cc(OC)ccc3n3cnc4ccc1c2c43,2.73 µM,
Nc1nc(F)nc2c1ncn2C1OC(COP(=O)(O)O)C(O)C1O (stereo not drawn),1100 µM,
N#Cc1c(SCc2ccccc2)nc2[nH]c(=S)[nH]c(=S)c2c1-c1ccco1,> 100 µM,27.6 µM
BrC12C3C4C5C(C(C43)C13OCCO3)C52 (stereo not drawn),> 100 µM,
O=c1oc2ccccc2c(O)c1C(c1ccc2ccccc2c1)c1c(O)c2ccccc2oc1=O,> 100 µM,
O=C1c2scnc2-c2nccc3c2c1nc1ccccc13,2.88 µM,
Cc1ccc2nc(CN3CCCCC3)cc(=O)n2c1,> 100 µM,
Cc1ncc([N+](=O)[O-])n1CC(O)Cn1cnc([N+](=O)[O-])n1 (stereo not drawn),> 100 µM,
